The list shows a part of the results. At the low end of the ranking, values are background and their order means little.
molecular target: T1, GST-Rok-C97-191 (UniProt O34857); test: protein binding microarray; conditions: Rok is a gene silencer of Bacillus subtilis; high values mean tight binding; most listed sequences are background and not binding sites; double strand, one strand shown;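 further: rank score from −0.5 (least bound) to 0.5 (best bound)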
T1 sequence: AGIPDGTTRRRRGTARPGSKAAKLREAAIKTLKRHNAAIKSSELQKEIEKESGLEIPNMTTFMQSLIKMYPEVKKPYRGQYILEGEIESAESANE

Sequence	binding signal
CCTGCAAA	-0.143 E-score
AGAATACG	-0.0125 E-score
GCGTTGCC	-0.25 E-score
GATTGCGA	0.0546 E-score
TTCGCCAA	0.106 E-score
AATAATGT	0.203 E-score
CTAAAATC	0.326 E-score
ACTATAAC	0.211 E-score
CGGGGGAG	-0.241 E-score
CATAGCAC	-0.0051 E-score
AGTGGGCA	-0.0845 E-score
CAAAGCCA	-0.295 E-score
GCTGAACA	-0.137 E-score
CCATGGTC	-0.18 E-score
GATTTGAC	-0.0772 E-score
TATTACCA	0.272 E-score
CTGAGGCA	-0.168 E-score
GTAAATAC	0.336 E-score
GGCTATAC	-0.00424 E-score
CCCTAGGA	-0.175 E-score
CGAGGCAG	-0.215 E-score
GGTTTGTA	0.169 E-score

Sequence	binding signal
GATCTTCC	0.0218 E-score
AGAGTGTC	-0.0737 E-score
ATTCATTG	0.105 E-score
CACTCCTG	-0.247 E-score
GCGAAACA	-0.109 E-score
GCCGACCA	-0.195 E-score
ATCTCCTC	0.059 E-score
ATGACTCG	-0.021 E-score
GTAGAGTA	0.297 E-score
ATATTCGG	0.0383 E-score
ATTCTCCA	0.131 E-score
CTTGCAAG	0.00252 E-score
ACAACACT	0.223 E-score
AGAGCCTA	-0.0282 E-score
AACTGTCC	0.0229 E-score
GCCGGATA	0.146 E-score
GGTGCCGA	-0.297 E-score
ACATGGAC	-0.00942 E-score
GCCTGCGA	-0.254 E-score
ACACGGGC	0.0191 E-score
GGGCGGCA	-0.319 E-score
GGGCATTA	-0.117 E-score

Sequence	binding signal
CGCCCAAA	-0.114 E-score
CATGATAC	0.0758 E-score
GCGTAGGA	0.0265 E-score
AGAGGCTG	-0.199 E-score
ACCATGCG	-0.0709 E-score
GAAGCTAA	-0.056 E-score
GGATGTCA	-0.04 E-score
ATTTATCA	0.229 E-score
CAAACTCG	-0.0543 E-score
CCTTTTCG	0.0618 E-score
GCGTTGGA	-0.178 E-score
CTATGGGA	-0.243 E-score
AGCCTTTA	-0.0414 E-score
GTTTTCAA	-0.105 E-score
AAGAGACC	-0.126 E-score
CACATGTA	0.162 E-score
ATTTGCAA	0.0774 E-score
GATTCGTA	0.149 E-score
ATGGGGAG	-0.37 E-score
CTTGTGGC	-0.167 E-score
GGTGGCTA	0.0901 E-score
CGGCCATA	-0.0978 E-score

Sequence	binding signal
AACCGGGA	-0.285 E-score
ACGAGGCG	-0.133 E-score
ACGCGCGA	0.0223 E-score
CGGCGTCC	-0.151 E-score
AACCCGGG	-0.252 E-score
CCCGTAGG	-0.124 E-score
GAGGTGAA	-0.154 E-score
AGAGTTTC	-0.0267 E-score
CACGTAAC	-0.0392 E-score
CCCTGTCA	-0.229 E-score
TGGATTAA	0.0948 E-score
ACGTCCCG	-0.242 E-score
GGTAAAAC	0.121 E-score
GGCACAAC	-0.141 E-score
AGACAAAT	-0.0166 E-score
AAAGGCAT	-0.0738 E-score
GGACCACA	-0.0476 E-score
AAGCCTGG	-0.197 E-score
ACATTCCC	-0.0621 E-score
ACTTGGGG	0.0337 E-score

From PMC6212790
